Results from patent US20090258005A1 (TRUBION PHARMACEUTICALS, published 2009).

T1: CD20 on Ramos cells
T1 construct: also called Ramos (Her2-/CD20+ control)
T1 chain: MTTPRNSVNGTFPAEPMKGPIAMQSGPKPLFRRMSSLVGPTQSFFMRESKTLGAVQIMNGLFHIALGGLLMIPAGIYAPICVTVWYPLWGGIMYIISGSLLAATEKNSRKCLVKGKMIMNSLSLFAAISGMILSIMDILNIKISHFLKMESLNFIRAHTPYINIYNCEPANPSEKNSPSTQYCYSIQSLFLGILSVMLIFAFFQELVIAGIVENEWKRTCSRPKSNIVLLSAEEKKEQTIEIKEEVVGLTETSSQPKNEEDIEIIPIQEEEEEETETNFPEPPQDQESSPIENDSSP


Tests used:
CD20 on Ramos cells = molecular target: T1, CD20 on Ramos cells; assay: flow cytometry (X geo mean FL1-H), Ramos cells
[1] = molecular target: T2, Her018P, Her2 ECD with a deletion in the CR2 (Domain IV) region expressed with a mIgG2a Fc tail (human; murine, UniProt P04626 fragment); assay: BIACORE T100, binder captured by anti-human Fc, Her2 protein as analyte, 25 C
T2 construct: Shares the name HER018 with the trastuzumab SMIP; also called 1.8 (Dimer); dimeric HER018; not shown: murine IgG2a Fc tail (C-terminal dimerising carrier) and any junction residues

[2] = molecular target: T3, Her008P, full-length extracellular domain (ECD) of Her2 expressed with a mIgG2a Fc tail (human; murine, UniProt P04626 fragment); assay: as above
T3 construct: also called SIIS; SIIS (Dimer); not shown: murine IgG2a Fc tail

binding result (CD20 on Ramos cells) | Kd [1] [nM] | Kd [2] [nM] | Binder
no binding (tested: 200 nM) |  |  | HER067 SMIP (Fc fusion, HER067 is produced in CHO cells; also called Her033/Her067) QVQLQQSGAEVKKPGSSVKVSCKASGGTISNYAISWVRLAPGQGLEWMGSIVPLHGTTNFAQKFQGRVTITADESTSTSYMEVNVLTYEDTAMYYCASLNWGYWGRGTLVTVSSGGGGSGGGGSGGGGSALNFMLTQPHSVSESPGKTVTISCTGSSGSIASNYVQWYQQRPDSAPTTVIYEDNRRSSGVPDRFSGSIDSSSNSASLSISGLKTEDEADYYCQSYDSSGHVVFGGGTKLTVLGDVR[human IgG1 Fc with changes not shown]
 | 27.6 | 35.6 | HER030 SMIP (Fc fusion, SMIP: VH - linker - VL - SCCP hinge - Fc) EVQLVQSGGGLVRPGGSLRLSCAASGFSFSDYYMTWIRQIPGKGLEWVAVIWNDGSDRYYADSVKGRFTISRDNSKNTLFLQMSSLRDEDTALYYCVRGGPTASSGFDYWGRGTLVTVSSGGGGSGGGGSGGGGSSELTQPASVSGSPGQSITISCTGTSSDVGGYNYVSWYLQHPGKAPKLMIYEGSKRPSGVSNRFSGSKSGNTASLTISGLQAEDEADYYCSSYTTRSTRVFGGGTKLTVLGDVR[human IgG1 Fc with changes not shown]
